PMC9911399, “Two distinct binding modes provide the RNA-binding protein RbFox with extraordinary sequence specificity”
Substitutions are numbered along the chain they refer to; changes in the protein carry UniProt numbers. The list shows a part of the results.

What was measured:
[1] = biological target: T1, RBFOX1 RRM RbFoxmut (Fox-RRM*) (Homo sapiens, UniProt Q9NWB1 109-208, R118D;E147R;N151S;E152T); test: competition; 10 mM Tris pH 7.5, 150 mM NaCl, 3.4 mM EDTA, 0.001% NP-40, 30 C; settings: tags: His6 N-terminal (pET28a)
T1 sequence: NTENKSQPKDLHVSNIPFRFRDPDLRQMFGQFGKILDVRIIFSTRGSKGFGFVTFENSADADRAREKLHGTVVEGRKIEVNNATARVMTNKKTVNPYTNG

[2] = biological target: T1, RBFOX1 RRM RbFoxmut (Fox-RRM*); test: EMSA; HiTS-Eq, 1 nM pool, 10 min; buffer printed only for the single-RNA assays: 10 mM Tris pH 7.5, 150 mM NaCl, 3.4 mM EDTA, 0.001% NP-40, 30 C; settings: tags: His6 N-terminal (pET28a); label: 5' 32P
Summary of the method: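 A pool of RNA with 7 randomized nucleotides, 5′-radiolabelled and with DNA-annealed flanks, was equilibrated at 1 nM for 10 min in 50 µL with purified RbFox RRM, wild type or mutant, across increasing protein concentrations. Free RNA was separated by 8% native PAGE, excised, reverse-transcribed, barcoded by PCR and sequenced. Relative association constants were obtained from read-count changes of each RNA species versus the control reaction and normalised to the cognate motif.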

UGCAUAU (ssRNA)
binding signal [1]: 203 nM

B1: GCAUGCC (DNA:RNA)
RNA: GGGAGACCGGAAUUCAGAUUGUCCGCAUGCCUUAAAUCCCGUCGUAGCCACCA
DNA 1: CAATCTGAATTCCGGTCTCCC
DNA 2: TGGTGGCTACGACGGGATT
binding signal [2]: 0.651 KA relative to UGCAUGU

B2: AGCCAGA (DNA:RNA)
RNA: GGGAGACCGGAAUUCAGAUUGUCCAGCCAGAUUAAAUCCCGUCGUAGCCACCA
DNA 1: CAATCTGAATTCCGGTCTCCC
DNA 2: TGGTGGCTACGACGGGATT
binding signal [2]: 0.0803 KA relative to UGCAUGU

B3: CACUGGG (DNA:RNA)
RNA: B2 RNA with A25C, G26A, C28U, A29G, A31G
DNA 1: CAATCTGAATTCCGGTCTCCC
DNA 2: TGGTGGCTACGACGGGATT
binding signal [2]: 0.0836 KA relative to UGCAUGU

B4: CUGUGAA (DNA:RNA)
RNA: B1 RNA with G25C, C26U, A27G, C30A, C31A
DNA 1: CAATCTGAATTCCGGTCTCCC
DNA 2: TGGTGGCTACGACGGGATT
binding signal [2]: 0.116 KA relative to UGCAUGU

B5: ACUCGUU (DNA:RNA)
RNA: B2 RNA with G26C, C27U, A29G, G30U, A31U
DNA 1: CAATCTGAATTCCGGTCTCCC
DNA 2: TGGTGGCTACGACGGGATT
binding signal [2]: 0.113 KA relative to UGCAUGU

B6: CGCGUUA (DNA:RNA)
RNA: B2 RNA with A25C, C28G, A29U, G30U
DNA 1: CAATCTGAATTCCGGTCTCCC
DNA 2: TGGTGGCTACGACGGGATT
binding signal [2]: 0.111 KA relative to UGCAUGU

B7: CACAUUG (DNA:RNA)
RNA: B2 RNA with A25C, G26A, C28A, A29U, G30U, A31G
DNA 1: CAATCTGAATTCCGGTCTCCC
DNA 2: TGGTGGCTACGACGGGATT
binding signal [2]: 0.116 KA relative to UGCAUGU

B8: UCCCAGU (DNA:RNA)
RNA: B2 RNA with A25U, G26C, A31U
DNA 1: CAATCTGAATTCCGGTCTCCC
DNA 2: TGGTGGCTACGACGGGATT
binding signal [2]: 0.106 KA relative to UGCAUGU

B9: ACUUACG (DNA:RNA)
RNA: B1 RNA with G25A, A27U, G29A, C31G
DNA 1: CAATCTGAATTCCGGTCTCCC
DNA 2: TGGTGGCTACGACGGGATT
binding signal [2]: 0.121 KA relative to UGCAUGU

B10: GUUUCCA (DNA:RNA)
RNA: B1 RNA with C26U, A27U, G29C, C31A
DNA 1: CAATCTGAATTCCGGTCTCCC
DNA 2: TGGTGGCTACGACGGGATT
binding signal [2]: 0.121 KA relative to UGCAUGU

B11: UUUCCGG (DNA:RNA)
RNA: B2 RNA with A25U, G26U, C27U, A29C, A31G
DNA 1: CAATCTGAATTCCGGTCTCCC
DNA 2: TGGTGGCTACGACGGGATT
binding signal [2]: 0.0808 KA relative to UGCAUGU

B12: AGGAUCG (DNA:RNA)
RNA: B2 RNA with C27G, C28A, A29U, G30C, A31G
DNA 1: CAATCTGAATTCCGGTCTCCC
DNA 2: TGGTGGCTACGACGGGATT
binding signal [2]: 0.296 KA relative to UGCAUGU

B13: CUACAAG (DNA:RNA)
RNA: B2 RNA with A25C, G26U, C27A, G30A, A31G
DNA 1: CAATCTGAATTCCGGTCTCCC
DNA 2: TGGTGGCTACGACGGGATT
binding signal [2]: 0.0447 KA relative to UGCAUGU

B14: ACAGCUA (DNA:RNA)
RNA: B2 RNA with G26C, C27A, C28G, A29C, G30U
DNA 1: CAATCTGAATTCCGGTCTCCC
DNA 2: TGGTGGCTACGACGGGATT
binding signal [2]: 0.124 KA relative to UGCAUGU

B15: CUCCUCC (DNA:RNA)
RNA: B2 RNA with A25C, G26U, A29U, G30C, A31C
DNA 1: CAATCTGAATTCCGGTCTCCC
DNA 2: TGGTGGCTACGACGGGATT
binding signal [2]: 0.0813 KA relative to UGCAUGU

B16: UCCUAGC (DNA:RNA)
RNA: B2 RNA with A25U, G26C, C28U, A31C
DNA 1: CAATCTGAATTCCGGTCTCCC
DNA 2: TGGTGGCTACGACGGGATT
binding signal [2]: 0.108 KA relative to UGCAUGU

B17: UUCAAGU (DNA:RNA)
RNA: B2 RNA with A25U, G26U, C28A, A31U
DNA 1: CAATCTGAATTCCGGTCTCCC
DNA 2: TGGTGGCTACGACGGGATT
binding signal [2]: 0.0862 KA relative to UGCAUGU

B18: CCAAGAU (DNA:RNA)
RNA: B1 RNA with G25C, U28A, C30A, C31U
DNA 1: CAATCTGAATTCCGGTCTCCC
DNA 2: TGGTGGCTACGACGGGATT
binding signal [2]: 0.094 KA relative to UGCAUGU

B19: AAUUAAA (DNA:RNA)
RNA: B2 RNA with G26A, C27U, C28U, G30A
DNA 1: CAATCTGAATTCCGGTCTCCC
DNA 2: TGGTGGCTACGACGGGATT
binding signal [2]: 0.093 KA relative to UGCAUGU

B20: GGAAGUA (DNA:RNA)
RNA: B1 RNA with C26G, U28A, C30U, C31A
DNA 1: CAATCTGAATTCCGGTCTCCC
DNA 2: TGGTGGCTACGACGGGATT
binding signal [2]: 0.124 KA relative to UGCAUGU

B21: GUAAUAC (DNA:RNA)
RNA: B1 RNA with C26U, U28A, G29U, C30A
DNA 1: CAATCTGAATTCCGGTCTCCC
DNA 2: TGGTGGCTACGACGGGATT
binding signal [2]: 0.113 KA relative to UGCAUGU

B22: ACCCGUU (DNA:RNA)
RNA: B2 RNA with G26C, A29G, G30U, A31U
DNA 1: CAATCTGAATTCCGGTCTCCC
DNA 2: TGGTGGCTACGACGGGATT
binding signal [2]: 0.0752 KA relative to UGCAUGU

B23: GGCUUAC (DNA:RNA)
RNA: B1 RNA with C26G, A27C, G29U, C30A
DNA 1: CAATCTGAATTCCGGTCTCCC
DNA 2: TGGTGGCTACGACGGGATT
binding signal [2]: 0.0955 KA relative to UGCAUGU

B24: CAUGACC (DNA:RNA)
RNA: B1 RNA with G25C, C26A, A27U, U28G, G29A
DNA 1: CAATCTGAATTCCGGTCTCCC
DNA 2: TGGTGGCTACGACGGGATT
binding signal [2]: 0.0827 KA relative to UGCAUGU

B25: CUCACUG (DNA:RNA)
RNA: B2 RNA with A25C, G26U, C28A, A29C, G30U, A31G
DNA 1: CAATCTGAATTCCGGTCTCCC
DNA 2: TGGTGGCTACGACGGGATT
binding signal [2]: 0.13 KA relative to UGCAUGU

B26: AGCGUAU (DNA:RNA)
RNA: B2 RNA with C28G, A29U, G30A, A31U
DNA 1: CAATCTGAATTCCGGTCTCCC
DNA 2: TGGTGGCTACGACGGGATT
binding signal [2]: 0.149 KA relative to UGCAUGU

B27: CACCAGC (DNA:RNA)
RNA: B2 RNA with A25C, G26A, A31C
DNA 1: CAATCTGAATTCCGGTCTCCC
DNA 2: TGGTGGCTACGACGGGATT
binding signal [2]: 0.0769 KA relative to UGCAUGU

B28: AGUUCUA (DNA:RNA)
RNA: B2 RNA with C27U, C28U, A29C, G30U
DNA 1: CAATCTGAATTCCGGTCTCCC
DNA 2: TGGTGGCTACGACGGGATT
binding signal [2]: 0.107 KA relative to UGCAUGU

B29: ACUCGUG (DNA:RNA)
RNA: B2 RNA with G26C, C27U, A29G, G30U, A31G
DNA 1: CAATCTGAATTCCGGTCTCCC
DNA 2: TGGTGGCTACGACGGGATT
binding signal [2]: 0.113 KA relative to UGCAUGU

B30: GAUAGGA (DNA:RNA)
RNA: B2 RNA with A25G, G26A, C27U, C28A, A29G
DNA 1: CAATCTGAATTCCGGTCTCCC
DNA 2: TGGTGGCTACGACGGGATT
binding signal [2]: 0.0606 KA relative to UGCAUGU
